# ± gives the uncertainty stated by the source. Some of the results follow. A small y stands for phosphotyrosine.
# B1: EPHB2_780/A1 (peptide)
# chain: yDTSDP
# B2: EPHB3_600/A1 (peptide)
# chain: yIAPGM
# B3: ERBB2_1005/A1 (peptide)
# chain: yRSLLE
# B4: ERBB2_1023/A1 (peptide)
# chain: yLVPQQ
# B5: ABL2_303/A1 (peptide)
# chain: yVGVWK
# B6: ERBB2_1112/A1 (peptide)
# chain: ySEDPT
# B7: ERBB2_1139/A1 (peptide)
# chain: yVNQPD
# B8: ERBB2_1196/A1 (peptide)
# chain: yLTPQG
# B9: ERBB2_1221/A1 (peptide)
# chain: yYWDQD
# B10: ERBB2_1222/A1 (peptide)
# chain: yWDQDP
# B11: ERBB2_1248/A1 (peptide)
# chain: yLGLDV
# B12: ERBB2_735/A1 (peptide)
# chain: yKGIWI
# B13: ERBB2_877/A1 (peptide)
# chain: yHADGG
# B14: ERBB3_1199/A1 (peptide)
# chain: yMNRRR
# B15: ERBB3_1262/A1 (peptide)
# chain: yMNRQR
# B16: ABL2_683/A1 (peptide)
# chain: yELTGN
# B17: ERBB3_1276/A1 (peptide)
# chain: yAAMGA
# B18: ERBB3_1289/A1 (peptide)
# chain: yEEMRA
# B19: ERBB3_1328/A1 (peptide)
# chain: yWHSRL
# B20: ERBB3_680/A1 (peptide)
# chain: yLERGE
# B21: ERBB4_1056/A1 (peptide)
# chain: yTPMSG
# B22: ERBB4_1162/A1 (peptide)
# chain: yLNPVE
# B23: ERBB4_1188/A1 (peptide)
# chain: yHNASN
# B24: ERBB4_1242/A1 (peptide)
# chain: yWNHSL
# B25: ERBB4_1258/A1 (peptide)
# chain: yLQEYS
# B26: ERBB4_1284/A1 (peptide)
# chain: yLSEFS
# B27: ABL2_718/A1 (peptide)
# chain: yGGSFA
# B28: ERBB4_733/A1 (peptide)
# chain: yKGIWV
# B29: FER_402/A1 (peptide)
# chain: yEEDAR
# B30: FER_714/A1 (peptide)
# chain: ySSSGL
# B31: FES_261/A1 (peptide)
# chain: yQGFLR
# B32: FES_614/A1 (peptide)
# chain: ySHPNI
# B33: FES_713/A1 (peptide)
# chain: yAASGG
# Target: GRB2 (endogenous complexes from cell lysate), P62993
# Assay: GRB2 complex binding differential signal (pY peptide minus Ala control peptide) (fluorescence intensity units); higher = stronger GRB2 complex binding
# Details: MCF7
# Method: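 In situ synthesized µParaflo PepArray of 6-mer peptides, each starting with an N-terminal phosphotyrosine (lowercase 'y' = pY) followed by 5 native residues. Peptides are tethered to glass through a long linker. Chips were incubated overnight at 4°C with total cell lysate (1 mg in 1 mL) from MCF10A, MCF7, T47D or MDA-MB-231 cells. Bound endogenous GRB2-containing complexes were detected with rabbit anti-GRB2 and an Alexa647 secondary antibody. Signals are background-subtracted and averaged over replicate spots, then the matched Ala-substituted control peptide signal is subtracted (differential signal).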
# 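Also: phosphopeptide probes on the chip at 1–4 µM, lysate proteins bound in 20 mM Tris pH 7.0 buffer with 140 mM NaCl, 1% Triton X-100 and 5% glycerol.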
row,Binder,GRB2 complex binding differential signal
1,B1,975 ± 260
2,B2,22000 ± 2100
3,B3,510 ± 460
4,B4,7650 ± 2200
5,B5,248 ± 180
6,B6,846 ± 740
7,B7,51000 ± 7800
8,B8,12100 ± 3600
9,B9,135 ± 490
10,B10,-160 ± 350
11,B11,50.1 ± 330
12,B12,378 ± 160
13,B13,840 ± 790
14,B14,17300 ± 3600
15,B15,10000 ± 1100
16,B16,1340 ± 650
17,B17,1680 ± 310

row,Binder,GRB2 complex binding differential signal
1,B18,1010 ± 270
2,B19,8.56 ± 160
3,B20,273 ± 330
4,B21,-1660 ± 2100
5,B22,6520 ± 850
6,B23,11500 ± 2600
7,B24,1120 ± 500
8,B25,115 ± 250
9,B26,-84.1 ± 270
10,B27,29.7 ± 880
11,B28,214 ± 350
12,B29,858 ± 290
13,B30,910 ± 630
14,B31,883 ± 300
15,B32,8680 ± 3400
16,B33,721 ± 240

# Same assay, conditions: MCF10A
row,Binder,GRB2 complex binding differential signal
1,B1,239 ± 350
2,B2,7240 ± 2200
3,B3,422 ± 290
4,B4,2720 ± 1500
5,B5,199 ± 280
6,B6,1030 ± 430
7,B7,49100 ± 5300
8,B8,7280 ± 1100
9,B9,-144 ± 390
10,B10,2.93 ± 180
11,B11,200 ± 200
12,B12,90 ± 180
13,B13,1090 ± 440
14,B14,6870 ± 1300
15,B15,8610 ± 2100
16,B16,889 ± 380
17,B17,1170 ± 200

row,Binder,GRB2 complex binding differential signal
1,B18,689 ± 310
2,B19,11.5 ± 140
3,B20,259 ± 280
4,B21,617 ± 500
5,B22,4730 ± 1200
6,B23,6840 ± 1700
7,B24,374 ± 180
8,B25,205 ± 140
9,B26,100 ± 250
10,B27,11.1 ± 280
11,B28,203 ± 300
12,B29,736 ± 230
13,B30,1080 ± 350
14,B31,459 ± 180
15,B32,4230 ± 1100
16,B33,1170 ± 250

# Same assay, conditions: MDA-MB-231
row,Binder,GRB2 complex binding differential signal
1,B1,821 ± 510
2,B2,2450 ± 660
3,B3,1110 ± 520
4,B4,1870 ± 410
5,B5,1270 ± 460
6,B6,849 ± 280
7,B7,13700 ± 2400
8,B8,2360 ± 510
9,B9,287 ± 260
10,B10,390 ± 260
11,B11,671 ± 320
12,B12,516 ± 390
13,B13,339 ± 390
14,B14,3320 ± 460
15,B15,3730 ± 750
16,B16,1010 ± 330
17,B17,1050 ± 330

row,Binder,GRB2 complex binding differential signal
1,B18,1150 ± 360
2,B19,88.1 ± 220
3,B20,207 ± 290
4,B21,307 ± 300
5,B22,3420 ± 990
6,B23,1620 ± 530
7,B24,534 ± 330
8,B25,824 ± 370
9,B26,464 ± 350
10,B27,488 ± 820
11,B28,562 ± 280
12,B29,1090 ± 330
13,B30,879 ± 350
14,B31,601 ± 260
15,B32,2470 ± 560
16,B33,694 ± 330

# Same assay, conditions: T47D
row,Binder,GRB2 complex binding differential signal
1,B1,153 ± 970
2,B2,3690 ± 1300
3,B3,1280 ± 1200
4,B4,966 ± 1100
5,B5,3400 ± 1200
6,B6,416 ± 1100
7,B7,19400 ± 8000
8,B8,2010 ± 1400
9,B9,-31.2 ± 820
10,B10,-3.95 ± 1600
11,B11,226 ± 890
12,B12,1370 ± 1000
13,B13,18.2 ± 1100
14,B14,5420 ± 2000
15,B15,8860 ± 2100
16,B16,1180 ± 1200
17,B17,2150 ± 1300

row,Binder,GRB2 complex binding differential signal
1,B18,1590 ± 1600
2,B19,408 ± 1200
3,B20,87.4 ± 1100
4,B21,1270 ± 1400
5,B22,7070 ± 2000
6,B23,6720 ± 1900
7,B24,3140 ± 1200
8,B25,531 ± 2100
9,B26,26.1 ± 1300
10,B27,2410 ± 1700
11,B28,1870 ± 1600
12,B29,2480 ± 1500
13,B30,1550 ± 1100
14,B31,2220 ± 1400
15,B32,3060 ± 1300
16,B33,1700 ± 1100

# Source: the supplement of paper PMC3694890
